# From PubChem BioAssay AID1159614 (National Center for Advancing Translational Sciences (NCATS), 2016)
# Screen size: about 45,000 compounds; about 65 (0.1%) were called active. Calls follow the shape of the dose curve; as a rule, active = well fitted activation curve with a large enough effect; inconclusive = small, poorly fitted or top-dose-only effect; inactive = no such curve, though single readings can be large or run the other way. This is one part of the list.
# Target: Galactocerebrosidase (Homo sapiens) (UniProt P54803)
# Experiment: A Novel Cell-Based Assay to Identify Small Molecules for B -Galactocerebrosidase; also: nearly all actives have a fitted effect of over 65% in size; as to activation: 0% is about no effect
# Conditions: 145M-Twi-hGALC-G270D cells (Twitcher mouse brain line with human GALC G270D), HMU-beta-Gal fluorescence, 48 h; series mostly up to 57.5 µM; activation: at the top concentration
# Summary of the method: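 Live 145M-Twi cells (Twitcher mouse brain-derived, GALC-null) stably expressing human GALC-G270D, with a wild-type GALC line, were compound-treated. Residual GALC activity was then read as fluorescence from 0.1 mM final HMU-β-gal at pH 5.2; higher signal means activation.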
# Potency is read from the fitted curve at half-maximal effect.
# UniProt P54803, sequence (P54803 whole entry, looked up): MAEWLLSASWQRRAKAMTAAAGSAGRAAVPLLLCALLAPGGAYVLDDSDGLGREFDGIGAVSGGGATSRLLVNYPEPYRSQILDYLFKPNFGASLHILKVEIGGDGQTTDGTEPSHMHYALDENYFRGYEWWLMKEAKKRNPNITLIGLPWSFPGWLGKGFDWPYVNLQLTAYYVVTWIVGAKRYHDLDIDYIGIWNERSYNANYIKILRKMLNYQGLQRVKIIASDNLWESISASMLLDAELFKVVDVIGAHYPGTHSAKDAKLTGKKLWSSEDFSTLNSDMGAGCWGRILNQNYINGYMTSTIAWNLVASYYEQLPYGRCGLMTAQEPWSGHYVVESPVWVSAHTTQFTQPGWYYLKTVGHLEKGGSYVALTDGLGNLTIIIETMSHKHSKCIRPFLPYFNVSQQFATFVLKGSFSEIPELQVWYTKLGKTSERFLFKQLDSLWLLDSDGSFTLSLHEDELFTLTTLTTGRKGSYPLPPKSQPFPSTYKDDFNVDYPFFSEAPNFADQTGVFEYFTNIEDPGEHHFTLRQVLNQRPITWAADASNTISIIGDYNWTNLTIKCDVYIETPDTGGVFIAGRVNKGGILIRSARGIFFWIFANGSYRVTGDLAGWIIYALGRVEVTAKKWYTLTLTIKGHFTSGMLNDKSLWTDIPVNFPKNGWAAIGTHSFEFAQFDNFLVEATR
Structure (SMILES),activation,Potency
Cc1cccc(NC(=O)c2cc(S(=O)(=O)N3CCc4ccccc43)ccc2F)c1C,inactive: -9.02%,
O=C(Nc1cccc(Cl)c1)N1CCSc2ccccc21,inactive: -4.22%,
CSc1ccc(CCNC(=O)c2cnn(-c3ccccc3)c2-n2cccc2)cc1,inactive: 12.8%,
CCN(CC)c1cc(C)c2cc(NC(=O)c3cccc(F)c3)ccc2n1,inactive: -11.8%,
CC(NC(=O)CCCC1=NS(=O)(=O)c2ccccc2N1)c1ccccc1 (stereo unspecified),inactive: -14.5%,
CCOc1ccccc1NC(=O)c1c(NC(=O)COc2ccccc2)sc2c1CCCCC2,inactive: -6.79%,
Cc1ccc(N2C(=O)CSC23C(=O)N(CC(=O)NCCc2ccccc2)c2ccccc23)cc1C (stereo unspecified),inactive: -17.1%,
CCCn1cc(S(=O)(=O)c2ccccc2)c(=O)c2cc(F)c(N3CCCCC3)cc21,inactive: -13.4%,
COc1ccc(N2CCN(C(=O)C3CCCN(S(=O)(=O)c4ccc5c(c4)CCCN5C(C)=O)C3)CC2)cc1 (stereo unspecified),inactive: -8.99%,
COCCCNC(=O)CS(=O)Cc1nc(-c2cccc(C)c2)oc1C (stereo unspecified),inactive: -10.1%,
COc1ccc(OC)c(-c2cc(C(=O)NCCc3ccccc3)c3c(-c4ccc(C)cc4)[nH]nc3n2)c1,inactive: 6.51%,
CCOC(=O)c1cnc2c(ccc3ccccc32)c1Nc1ccccc1OCC,inactive: -8.33%,
Cc1ccc(NC(=O)C2CCN(c3nc4ccccc4nc3C(F)(F)F)CC2)cc1F,inactive: -19.3%,
CCOC(=O)c1cc(-c2ccccc2)n(-c2cccc(C(=O)Nc3cccc(F)c3)c2)c1C,inactive: -11.4%,
CCC(C)n1c(=N)c(C(=O)NCc2ccccc2)cc2c(=O)n3cc(C)ccc3nc21 (stereo unspecified),inactive: -16%,
COc1ccc(C(=O)Nc2nnc(S(=O)(=O)N3CCCCCC3)s2)cc1OC,inactive: -7.55%,
COc1ccc(CCNC(=O)c2sc3nc4n(c(=O)c3c2C)CCCC4)cc1OC,inactive: -9.97%,
CCc1cccc(C)c1NC(=O)CC1Oc2ccc(C)cc2NC1=O (stereo unspecified),inactive: -6.06%,
Cc1ccc(CNC(=O)CCc2c(C)nc3c(c(C)nn3-c3ccccc3)c2C)cc1,inactive: -2.15%,
COc1ccc(C(=O)c2oc3ccccc3c2NC(=O)COc2ccccc2)cc1,inactive: -17.6%,
CCN(CC)C(=O)/C(C#N)=C/c1cc(O)c(O)c([N+](=O)[O-])c1,inactive: -11.8%,
COc1ccc(Cl)cc1NS(=O)(=O)c1cc(Br)cc2c1N(C(=O)C1CC1)CC2,inactive: -10.6%,
CC(C)n1c(=N)c(C(=O)NCc2cccnc2)cc2c(=O)n3ccccc3nc21,,active: 3.98 µM

Structure (SMILES),activation,Potency
O=C(COc1ccc(Cl)cc1)OCc1cc(=O)n2nc(-c3cccs3)sc2n1,inactive: -3.28%,
Cc1ccc(Cc2nc3ccccc3nc2SCC(=O)NCCC(C)C)cc1,inactive: -7.28%,
COc1ccc(NC(=O)c2csc3c2CCCCC3)cc1,inactive: -16%,
Cc1ccc(Cc2c(C)nc3nc(SCC(=O)NC(C)c4ccccc4)nn3c2C)cc1 (stereo unspecified),inactive: -23.8%,
CCCN(C(=O)c1nn(-c2ccc(OC)cc2)c(=O)c2c1c1ccccc1n2C)c1ccc(CC)cc1,inactive: -7.21%,
CCOc1cccc(C(=O)Nc2ccc(S(=O)(=O)N(Cc3ccccc3)c3ccccc3)cc2)c1,inactive: -22%,
CCOc1ccc(NC(=O)Cn2cc(C(=O)c3ccc(CC)cc3)c(=O)c3cc(C)ccc32)cc1,inactive: -2.79%,
COc1cccc(-c2nc(SCc3cc(=O)c4ccc(C)c(C)c4[nH]3)n[nH]2)c1,inactive: -28.1%,
Cn1c(=O)c2c(-c3ccccc3)n3c4ccccc4nc(-c4ccccc4)c3c2n(C)c1=O,inactive: -23.6%,
COc1ccc(C(=O)NCC(c2cccnc2)N2CCc3ccccc3C2)cc1OC (stereo unspecified),inactive: -25.4%,
COC(=O)c1cc2occc2n1Cc1nc(-c2ccccc2F)oc1C,inactive: -11.7%,
COc1ccc(S(=O)(=O)c2nnn(-c3cc(Cl)c(OC)cc3OC)c2C)cc1,inactive: -43.2%,
CCOCCCn1c(SCC(=O)Nc2ccc(C(C)C)cc2)nc2c(sc3ccccc32)c1=O,inactive: -11.6%,
C[C@]12C=CC(=O)C=C1CC[C@H]1[C@@H]3C[C@@H](O)[C@](O)(C(=O)CO)[C@@]3(C)C[C@H](O)[C@@]12F,inactive: -16.4%,
O=C(CSc1nc2c([nH]c3ccccc32)c(=O)n1-c1ccc(F)cc1)NCc1ccccc1,inactive: -10.8%,
Cc1ccc(CN2CCC(CNc3ncnc4onc(-c5ccc(F)cc5)c34)CC2)cc1,inactive: -13.1%,
CCn1c(=O)c2cc(C(=O)Nc3cc(F)ccc3F)sc2c2ccccc21,inactive: 12.4%,
O=C(Nc1cccc(-c2nc3cc(Cl)ccc3o2)c1)c1cc([N+](=O)[O-])ccc1N1CCOCC1,inactive: -13.5%,
COc1ccc(CN2C(=O)c3oc4ccccc4c(=O)c3C2c2ccc(O)cc2)cc1 (stereo unspecified),inactive: -16.3%,
COc1ccccc1NC(=O)Cn1c(=O)n(Cc2ccccc2)c(=O)c2sc3ccccc3c21,inactive: 21.2%,
Cc1ccc(-c2nnc(Nc3cccc(Cl)c3)c3ccccc23)cc1S(=O)(=O)N1CCOCC1,inactive: -13.6%,
COc1ccc(C)cc1NC(=O)N(Cc1ccc(C)o1)C1CCN(C(C)=O)CC1,inactive: -24.1%,
O=C(Cn1cnc2c(oc3ccccc32)c1=O)Nc1ccccc1C(F)(F)F,inactive: -8.51%,
